Assay results from the supplement of paper PMC10338343.
± gives the standard deviation. This is a selection; strong and weak results do not stand in their true shares.

What follows are sequences tested on MIWI (PIWIL1) piRISC loaded with L1MC piRNA (30 nt) (assay: pre-steady-state target cleavage rate (min^-1); MIWI and MILI are mouse PIWI proteins and EfPiwi is from a freshwater sponge; tags in brackets are library labels; higher = faster piRNA-guided slicing of the target). Details: guide: L1MC piRNA 5'p-UAACUAAAUACUAUGCAAGCUGUAGGUCCU; auxiliary factor: 500 nM mouse GTSF1.
Procedure, shortened: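 The pre-steady-state cleavage rate was obtained by Cleave-'n-Seq with a burst-and-steady-state fit. A transcribed, DNA-blocked target RNA library (0.1 nM) was mixed with 1 nM active affinity-purified piRISC carrying one synthetic guide, with or without 500 nM GTSF1 partner protein, in HEPES–potassium acetate buffer at 33 °C for 0–8 or 0–960 min. Uncleaved targets were sequenced and normalised to depth and to weakly complementary targets, with three trials pooled and k3 capped at 0.0001 min^-1.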

Row | Sequence | pre-steady-state target cleavage rate
1 | UGGACGAUCAGCUUGCAUAGUAUUUUCAAA | 0.337 ± 0.038
2 | UCCACCUACAGGUUGCAUAGUAUUUAGUAA | 0.866 ± 0.1
3 | AGGACCUACAGCUUGCAAAGUAUUUAGAUA | 0.582 ± 0.057
4 | UCCACCAUACAGCUUGCAUAGUAUUUAGUUA | 0.902 ± 0.032
5 | UCCUGGAACAGCUUGCAAAGAAUUUAGUUA | 0.278 ± 0.035
6 | AGGACGAUCAGCUUGCAUAGUAUUUACAAA | 0.447 ± 0.071
7 | AGGACCUACAGCUUGCAUACUAUUUACUUA | 0.236 ± 0.029
8 | UCCUGGAACUGCUUGGAUAGUAUUUAGUUA | 0.975 ± 0.05
9 | AGGACCUAGAGCUUGCAUUGUAUUUAGUUA | 0.965 ± 0.062
10 | UCGACCUACAGGUUGCAUAGUAUUUUGUUA | 0.715 ± 0.054
11 | UCCUCCUACACCUAGCAUAGUAUUUAGUUA | 0.657 ± 0.057
12 | UCCUGCUACAGUUUGCAUAGUAUUUAGUUA | 1.13 ± 0.036
13 | AGGACCUACAGCUUGCAUAGUAAUUACUUA | 0.375 ± 0.057
14 | UCCUGGAUCAGCUUGCAAAGUAUUUACUUA | 0.264 ± 0.021
15 | UCCUGGUUCAGCUUGCAUAGUAUUUAGUUA | 0.972 ± 0.042
16 | AGGACCUACAGCUUGCAUACUAAUUAGUUA | 0.288 ± 0.03
17 | UGGACCUACAGGAAGCAUAGUAUUUAGUAA | 0.573 ± 0.074
18 | UCCUGGAUGUCCUUGCAUAGUAUGUUAGUUA | 0.0145 ± 0.0049
19 | UCCUGGAUGUGCUUGCAUAGUAAUUAGUAA | 0.03 ± 0.0095
20 | UCCUGGAUCACCUUGCAUAGAAUUUAGUUA | 0.0649 ± 0.022

Row | Sequence | pre-steady-state target cleavage rate
21 | UCGACCUACAGCUUGGAUAGUAUUUAGAUA | 0.444 ± 0.05
22 | UCCUGCUACAGCUUGCAUAGAAUUUUGUUA | 0.27 ± 0.039
23 | UGGACCUUCAGCUUGCAUAGUAUUUAGAAA | 0.39 ± 0.038
24 | UCCUGGAUGAGCUUGCAUAGUUUUUAGUAA | 0.0897 ± 0.018
25 | UGGACCUACAGCAUGCAUAGUAUUUAGUUA | 1.38 ± 0.078
26 | UCGACCUACAGCUUGCAUUGUAUUUAGUAA | 0.589 ± 0.026
27 | UCCUGGAUGAGCAUGCAUAGUAUUUACUUA | 0.239 ± 0.033
28 | UCCUGGAACAGGUUGCAUAGUAAUUAGUUA | 0.567 ± 0.047
29 | UCCUGGAUGAGCUUGCAUAGUAUCUAGUUA | 0.448 ± 0.043
30 | UCCACCUACAGCUUGCAUAGUAUAAAGUUA | 0.401 ± 0.039
31 | UCCUGCUACAGCUUGCAAUCUAUUUAGUUA | 0.199 ± 0.024
32 | UCCACCUACAGCUUGCAUAGAAUUUACUUA | 0.276 ± 0.042
33 | UGGACCUACAGCUUGCAUUGUAUUUACUUA | 0.403 ± 0.032
34 | UCCUGGAAUAGCUUGCAUAGUAUUUAGUUA | 0.819 ± 0.031
35 | AGGACCUACAGCUUGCUUAGUAUAUAGUUA | 0.762 ± 0.071
36 | UGGACCUUGUGCUUGCAUAGUAUUUAGAAA | 0.0452 ± 0.0082
37 | UCCUGGAACAGCUUGCAUAGUAUUAAGAAA | 0.376 ± 0.066
38 | UCCUCCUACAGCUAGGAUAGUAUUUAGUUA | 1.3 ± 0.061
39 | UCCUGGAUGAGCUUGCAUAGUAUUAAGUUA | 0.544 ± 0.066
40 | UCCUCCUACAGCUUGCAUAGUAUUUCGUUA | 0.503 ± 0.044

Same assay, conditions: guide: L1MC piRNA 5'p-UAACUAAAUACUAUGCAAGCUGUAGGUCCU; auxiliary factor: none (no GTSF1)

Row | Sequence | pre-steady-state target cleavage rate
41 | UGGACGAUCAGCUUGCAUAGUAUUUUCAAA | 0.00684 ± 0.0023
42 | UCCACCUACAGGUUGCAUAGUAUUUAGUAA | 0.0134 ± 0.0028
43 | AGGACCUACAGCUUGCAAAGUAUUUAGAUA | 0.0227 ± 0.0052
44 | UCCACCAUACAGCUUGCAUAGUAUUUAGUUA | 0.102 ± 0.02
45 | UCCUGGAACAGCUUGCAAAGAAUUUAGUUA | 0.0157 ± 0.0055
46 | AGGACGAUCAGCUUGCAUAGUAUUUACAAA | 0.00798 ± 0.0029
47 | AGGACCUACAGCUUGCAUACUAUUUACUUA | 0.0261 ± 0.0052
48 | UCCUGGAACUGCUUGGAUAGUAUUUAGUUA | 0.0313 ± 0.0076
49 | AGGACCUAGAGCUUGCAUUGUAUUUAGUUA | 0.0342 ± 0.0095
50 | UCGACCUACAGGUUGCAUAGUAUUUUGUUA | 0.0183 ± 0.0032
51 | UCCUCCUACACCUAGCAUAGUAUUUAGUUA | 0.0111 ± 0.0022
52 | UCCUGCUACAGUUUGCAUAGUAUUUAGUUA | 0.04 ± 0.006
53 | AGGACCUACAGCUUGCAUAGUAAUUACUUA | 0.023 ± 0.0064
54 | UCCUGGAUCAGCUUGCAAAGUAUUUACUUA | 0.0176 ± 0.0051
55 | UCCUGGUUCAGCUUGCAUAGUAUUUAGUUA | 0.0721 ± 0.016
56 | AGGACCUACAGCUUGCAUACUAAUUAGUUA | 0.0117 ± 0.0027
57 | UGGACCUACAGGAAGCAUAGUAUUUAGUAA | 0.00377 ± 0.0021
58 | UCCUGGAUGUCCUUGCAUAGUAUGUUAGUUA | 0.00476 ± 0.0026
59 | UCCUGGAUGUGCUUGCAUAGUAAUUAGUAA | 0.0071 ± 0.0027
60 | UCCUGGAUCACCUUGCAUAGAAUUUAGUUA | 0.00594 ± 0.0019

Row | Sequence | pre-steady-state target cleavage rate
61 | UCGACCUACAGCUUGGAUAGUAUUUAGAUA | 0.0181 ± 0.0047
62 | UCCUGCUACAGCUUGCAUAGAAUUUUGUUA | 0.00926 ± 0.0027
63 | UGGACCUUCAGCUUGCAUAGUAUUUAGAAA | 0.0166 ± 0.005
64 | UCCUGGAUGAGCUUGCAUAGUUUUUAGUAA | 0.0145 ± 0.0052
65 | UGGACCUACAGCAUGCAUAGUAUUUAGUUA | 0.0549 ± 0.011
66 | UCGACCUACAGCUUGCAUUGUAUUUAGUAA | 0.0191 ± 0.0048
67 | UCCUGGAUGAGCAUGCAUAGUAUUUACUUA | 0.00683 ± 0.0021
68 | UCCUGGAACAGGUUGCAUAGUAAUUAGUUA | 0.0107 ± 0.003
69 | UCCUGGAUGAGCUUGCAUAGUAUCUAGUUA | 0.0464 ± 0.011
70 | UCCACCUACAGCUUGCAUAGUAUAAAGUUA | 0.0121 ± 0.0029
71 | UCCUGCUACAGCUUGCAAUCUAUUUAGUUA | 0.00438 ± 0.0025
72 | UCCACCUACAGCUUGCAUAGAAUUUACUUA | 0.0144 ± 0.0047
73 | UGGACCUACAGCUUGCAUUGUAUUUACUUA | 0.0248 ± 0.0066
74 | UCCUGGAAUAGCUUGCAUAGUAUUUAGUUA | 0.0683 ± 0.014
75 | AGGACCUACAGCUUGCUUAGUAUAUAGUUA | 0.0291 ± 0.0082
76 | UGGACCUUGUGCUUGCAUAGUAUUUAGAAA | 0.00518 ± 0.0023
77 | UCCUGGAACAGCUUGCAUAGUAUUAAGAAA | 0.00299 ± 0.0026
78 | UCCUCCUACAGCUAGGAUAGUAUUUAGUUA | 0.00664 ± 0.0017
79 | UCCUGGAUGAGCUUGCAUAGUAUUAAGUUA | 0.0124 ± 0.0049
80 | UCCUCCUACAGCUUGCAUAGUAUUUCGUUA | 0.04 ± 0.0087
